{
  "source": "paper PMC4336329",
  "about": "(PLoS ONE, 2015)",
  "note": "The campaign covered roughly 310,000 compounds. About 14,000 (4.5%) showed an effect of 50% or more. Effects have a minus sign here. This is one part of the list.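 Also: peak tail current of the secondary pulse compared with the same well before compound.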",
  "data": [
    {"target": "human ether-à-go-go-related gene (hERG) potassium channel (human, UniProt Q12809)", "sequence (Q12809 whole entry, looked up)": "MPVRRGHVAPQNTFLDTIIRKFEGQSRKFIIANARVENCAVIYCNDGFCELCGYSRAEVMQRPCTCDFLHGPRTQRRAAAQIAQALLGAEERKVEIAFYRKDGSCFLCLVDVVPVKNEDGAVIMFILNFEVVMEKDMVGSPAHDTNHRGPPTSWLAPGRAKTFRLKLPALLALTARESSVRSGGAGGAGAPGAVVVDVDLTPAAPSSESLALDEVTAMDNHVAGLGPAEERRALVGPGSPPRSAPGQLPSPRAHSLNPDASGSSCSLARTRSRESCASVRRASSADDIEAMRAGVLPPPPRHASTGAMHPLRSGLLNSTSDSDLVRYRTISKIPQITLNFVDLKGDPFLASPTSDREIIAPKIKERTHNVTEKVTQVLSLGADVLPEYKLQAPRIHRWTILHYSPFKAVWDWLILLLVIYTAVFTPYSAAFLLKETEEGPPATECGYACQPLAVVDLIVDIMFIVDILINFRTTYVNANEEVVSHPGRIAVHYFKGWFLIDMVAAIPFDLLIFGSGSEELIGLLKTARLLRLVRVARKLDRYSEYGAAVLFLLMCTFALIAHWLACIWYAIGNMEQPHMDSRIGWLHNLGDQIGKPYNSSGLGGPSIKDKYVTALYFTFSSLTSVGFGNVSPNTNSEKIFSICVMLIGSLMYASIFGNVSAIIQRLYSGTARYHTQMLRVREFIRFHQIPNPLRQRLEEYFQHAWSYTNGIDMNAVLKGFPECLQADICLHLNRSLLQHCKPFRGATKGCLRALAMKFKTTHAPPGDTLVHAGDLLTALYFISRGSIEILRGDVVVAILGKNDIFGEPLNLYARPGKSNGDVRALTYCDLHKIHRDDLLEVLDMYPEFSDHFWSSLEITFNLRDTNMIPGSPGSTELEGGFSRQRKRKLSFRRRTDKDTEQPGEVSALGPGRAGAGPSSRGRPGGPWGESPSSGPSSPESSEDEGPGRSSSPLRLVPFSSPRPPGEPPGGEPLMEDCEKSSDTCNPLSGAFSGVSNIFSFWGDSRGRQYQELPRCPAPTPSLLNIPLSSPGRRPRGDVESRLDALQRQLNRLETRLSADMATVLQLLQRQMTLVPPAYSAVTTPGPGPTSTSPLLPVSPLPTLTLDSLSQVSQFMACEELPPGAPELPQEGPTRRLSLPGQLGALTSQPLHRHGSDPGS", "assay": "primary screen, population patch clamp on CHO cells stably expressing hERG", "units": {"hERG current change (%, negative = inhibition) at 10uM": "%"}, "values": [
      {"smiles": "O=C(COc1ccc(F)cc1)N1CCc2ccccc2C1", "hERG current change (%, negative = inhibition) at 10uM": -21.7},
      {"smiles": "Cc1c(NC(=O)c2cccs2)cccc1-c1nc2ccccc2s1", "hERG current change (%, negative = inhibition) at 10uM": 5.28},
      {"smiles": "O=C(NC1=NCCS1)NC12CC3CC(CC(C3)C1)C2", "hERG current change (%, negative = inhibition) at 10uM": 4.6},
      {"smiles": "CCCCn1c(=O)c(C(=O)Nc2cnccn2)c(O)c2ccccc21", "hERG current change (%, negative = inhibition) at 10uM": 13.6},
      {"smiles": "O=C1C2CC=CCC2C(=O)N1c1ccc(NCCc2ccccc2F)c([N+](=O)[O-])c1", "note": "(centres unmarked)", "hERG current change (%, negative = inhibition) at 10uM": 11.7},
      {"smiles": "CCc1ccc(CNC(=O)C(=O)NCCc2ccc(OC)c(OC)c2)cc1", "hERG current change (%, negative = inhibition) at 10uM": 4.53},
      {"smiles": "Cc1ccc(S(=O)(=O)N2CCCCC2)cc1C(=O)N(C)CCOc1ccccc1", "hERG current change (%, negative = inhibition) at 10uM": -48},
      {"smiles": "CC(=O)c1ccc(Sc2ccc(C(C)=O)cc2)cc1", "hERG current change (%, negative = inhibition) at 10uM": -26},
      {"smiles": "COc1ccccc1OCC(=O)Nc1cc(C(F)(F)F)ccc1-n1cncn1", "hERG current change (%, negative = inhibition) at 10uM": -19.5},
      {"smiles": "CCCCCCc1nnc(N)s1", "hERG current change (%, negative = inhibition) at 10uM": -0.995},
      {"smiles": "Cc1ccc(S(=O)(=O)NCC(C)n2nc(C)nc2C)cc1", "note": "(centres unmarked)", "hERG current change (%, negative = inhibition) at 10uM": -0.542},
      {"smiles": "COc1ccc(CCNC(=O)CSc2nnc(-c3ccc(F)cc3)o2)cc1OC", "hERG current change (%, negative = inhibition) at 10uM": 0.28},
      {"smiles": "COC(=O)c1c(C(=O)OC)c(-c2ccc(OC)cc2)n2c1CS(=O)C2", "note": "(centres unmarked)", "hERG current change (%, negative = inhibition) at 10uM": 10.1},
      {"smiles": "O=c1[nH]cnc2cc(Cl)ccc12", "hERG current change (%, negative = inhibition) at 10uM": 8.17},
      {"smiles": "O=C(O)C(CC1CCCCC1)N1CCS(=O)(=O)CC1", "note": "(centres unmarked)", "hERG current change (%, negative = inhibition) at 10uM": 11.6},
      {"smiles": "O=C1CC(N2CCC(c3nc4ccccc4[nH]3)CC2)C(=O)N1Cc1ccccc1", "note": "(centres unmarked)", "hERG current change (%, negative = inhibition) at 10uM": -45.8},
      {"smiles": "Cc1c(C(=O)NCCc2ccc3c(c2)OCCO3)oc2ccccc12", "hERG current change (%, negative = inhibition) at 10uM": -19.5},
      {"smiles": "O=C(NCc1ccc2c(c1)OCO2)Nc1ccc(F)cc1", "hERG current change (%, negative = inhibition) at 10uM": 1.83},
      {"smiles": "Nc1ccc2oc(-c3cccc(Br)c3)nc2c1", "hERG current change (%, negative = inhibition) at 10uM": -6.71},
      {"smiles": "COCC(C)OC(=O)C(C#N)c1nc2ccccc2nc1N1CCN(Cc2ccccc2)CC1", "note": "(centres unmarked)", "hERG current change (%, negative = inhibition) at 10uM": -31},
      {"smiles": "COc1ccccc1C(=O)N1CCN(Cc2ccc3c(c2)OCO3)CC1", "hERG current change (%, negative = inhibition) at 10uM": -0.86},
      {"smiles": "Nc1nc(N)nc(-c2cc(F)ccc2O)n1", "hERG current change (%, negative = inhibition) at 10uM": 12.4},
      {"smiles": "Cc1ccc(C)c(CN2CCC(CNC(=O)Nc3ccc(Cl)cc3)CC2)c1", "hERG current change (%, negative = inhibition) at 10uM": -68.6},
      {"smiles": "Cc1ccc(NC(=O)CCC(=O)c2ccc(F)cc2)cc1Cl", "hERG current change (%, negative = inhibition) at 10uM": -4.53},
      {"smiles": "O=C(Nc1cccc(F)c1)c1cc(S(=O)(=O)N2CCC3(CC2)OCCO3)ccc1F", "hERG current change (%, negative = inhibition) at 10uM": -15.7},
      {"smiles": "CC(=O)N/N=C/C1=CCC2CC1C2(C)C", "note": "(centres unmarked)", "hERG current change (%, negative = inhibition) at 10uM": 44.2},
      {"smiles": "CN(C)S(=O)(=O)c1cccc(N=C2NN=C(c3ccccc3)CS2)c1", "hERG current change (%, negative = inhibition) at 10uM": 0.178},
      {"smiles": "CCn1c(C)nc2cc(C(=O)NNC(=S)Nc3ccccc3)ccc21", "hERG current change (%, negative = inhibition) at 10uM": 25.6},
      {"smiles": "Cc1nc2ccccc2c(=O)n1NC(=O)c1cccc(Cl)c1", "hERG current change (%, negative = inhibition) at 10uM": 13},
      {"smiles": "C(=N\\Nc1nc(N2CCCC2)nc(N2CCCC2)n1)/c1ccncc1", "hERG current change (%, negative = inhibition) at 10uM": 2.85},
      {"smiles": "NN=C(c1ccccc1)c1ccccc1", "hERG current change (%, negative = inhibition) at 10uM": 14.6},
      {"smiles": "Nc1nc2ncc(C(=O)c3cc(F)ccc3O)cc2s1", "hERG current change (%, negative = inhibition) at 10uM": -0.22},
      {"smiles": "CCC(CC)c1nc2ccccc2c(=O)[nH]1", "hERG current change (%, negative = inhibition) at 10uM": 21.7},
      {"smiles": "Cc1ccc(C)c(N2CC(C(=O)Nc3cc(C)on3)CC2=O)c1", "note": "(centres unmarked)", "hERG current change (%, negative = inhibition) at 10uM": 17.5},
      {"smiles": "COc1cc(NC(=O)CCN2CCN(c3ccccc3F)CC2)cc(OC)c1", "hERG current change (%, negative = inhibition) at 10uM": -56.6},
      {"smiles": "O=C(NCCc1ccccn1)c1cc(-c2ccc(Cl)cc2)nc2ccccc12", "hERG current change (%, negative = inhibition) at 10uM": -19.6},
      {"smiles": "O=C(NCCCN1CCOCC1)C(=O)N/N=C/c1ccc2c(c1)OCO2", "hERG current change (%, negative = inhibition) at 10uM": 12.4},
      {"smiles": "CCC(Oc1ccccc1)C(=O)NCc1ccc(S(N)(=O)=O)cc1", "note": "(centres unmarked)", "hERG current change (%, negative = inhibition) at 10uM": -7.92},
      {"smiles": "CCOC(=O)C1=C[C@]2(CC)CCCN3CCc4c(n1c1ccccc41)[C@@H]32", "hERG current change (%, negative = inhibition) at 10uM": -91.8},
      {"smiles": "CCN(C(=O)CSc1nnc(Nc2ccccc2)s1)C1CCS(=O)(=O)C1", "note": "(centres unmarked)", "hERG current change (%, negative = inhibition) at 10uM": -15.2},
      {"smiles": "CCC(C)Sc1cccc(-c2nc3ccc(C)cn3c2NC2CCCCC2)c1.O=C(O)C(F)(F)F", "note": "(centres unmarked)", "hERG current change (%, negative = inhibition) at 10uM": 21.7},
      {"smiles": "CCOc1ccc(C2C3=C(CCCC3=O)N(CC(=O)O)C3=C2C(=O)CCC3)cc1", "hERG current change (%, negative = inhibition) at 10uM": 2.21},
      {"smiles": "Cc1nn(CC(=O)NC(C)c2ccccc2)c(C)c1[N+](=O)[O-]", "note": "(centres unmarked)", "hERG current change (%, negative = inhibition) at 10uM": -2.83},
      {"smiles": "COC(=O)C1CCN(C(=O)CSc2ccccc2)CC1", "hERG current change (%, negative = inhibition) at 10uM": -2.01},
      {"smiles": "COc1cc(SC)ccc1C(=O)Nc1nc2ccccc2[nH]1", "hERG current change (%, negative = inhibition) at 10uM": 13.3},
      {"smiles": "CCN1CCN(c2cc(C)c3cc(NC(=O)Cc4ccccc4OC)ccc3n2)CC1", "hERG current change (%, negative = inhibition) at 10uM": -27.8},
      {"smiles": "Cc1csc(NC(=O)/C=C/c2ccc(C)o2)n1", "hERG current change (%, negative = inhibition) at 10uM": 14},
      {"smiles": "Cc1ccc(CC2S/C(=C(/C#N)C(=O)NCc3ccco3)N(c3ccccc3)C2=O)cc1", "note": "(centres unmarked)", "hERG current change (%, negative = inhibition) at 10uM": 4.55},
      {"smiles": "CCOc1ccc2nc(NC(=O)C3=NNC(=O)CC3)sc2c1", "hERG current change (%, negative = inhibition) at 10uM": 15.3},
      {"smiles": "CC(C)OC(=O)c1ccc(NC(=O)c2ccccc2)cc1", "hERG current change (%, negative = inhibition) at 10uM": -4.54},
      {"smiles": "O=C(NC1CC1)c1ccc(F)cc1Cl", "hERG current change (%, negative = inhibition) at 10uM": 21},
      {"smiles": "O=C(NNC(=O)c1cc(-c2cccnc2)nc2ccccc12)Nc1ccc(Cl)cc1", "hERG current change (%, negative = inhibition) at 10uM": -39.5},
      {"smiles": "O=c1[nH]c(CN2CCOCC2)nc2scc(-c3ccccc3)c12", "hERG current change (%, negative = inhibition) at 10uM": 10.7},
      {"smiles": "COc1ccc(CNC(=O)C(c2ccc(C)o2)N(C(=O)c2snc(C(N)=O)c2N)c2ccccc2OC)cc1", "note": "(centres unmarked)", "hERG current change (%, negative = inhibition) at 10uM": -2.47},
      {"smiles": "Cc1cc(C)c(S(C)(=O)=O)c(Oc2cccc(C(F)(F)F)c2)n1", "hERG current change (%, negative = inhibition) at 10uM": 6.13},
      {"smiles": "Cn1c(=O)c2c(nc(NCc3ccccc3)n2C)n(C)c1=O", "hERG current change (%, negative = inhibition) at 10uM": 3.65},
      {"smiles": "Cc1ccc(-n2nc(C)c(NC(=O)CCl)c2C)cc1", "hERG current change (%, negative = inhibition) at 10uM": -9.23},
      {"smiles": "COc1ccc(NC(=O)NN2CCOCC2)cc1OC", "hERG current change (%, negative = inhibition) at 10uM": 39.8},
      {"smiles": "COc1cccc(CNC(=O)CNS(=O)(=O)c2ccc(Br)s2)c1", "hERG current change (%, negative = inhibition) at 10uM": 4.12}
    ]}
  ]
}
